# Measurements taken from article PMC4336329 (PLoS ONE, 2015).
# Hit rate of the full screen: of about 310,000 compounds, about 14,000 (4.5%) showed an effect of 50% or more. Effects have a minus sign here. Some of the results follow. Where a SMILES comes first, the peptide text is derived from it. [ ]: non-standard residue; d: D form. The star is where a group is joined. ξ: configuration not given here. Cbz = O=C(OCc1ccccc1)*; ξP = O=C(O)C1CCCN1
# Biological target: human ether-à-go-go-related gene (hERG) potassium channel (human, UniProt Q12809)
# Assay: primary screen, population patch clamp on CHO cells stably expressing hERG
# 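Note: peak tail current of the secondary pulse compared with the same well before compound.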
# Sequence of human ether-à-go-go-related gene (hERG) potassium channel (Q12809 whole entry, looked up): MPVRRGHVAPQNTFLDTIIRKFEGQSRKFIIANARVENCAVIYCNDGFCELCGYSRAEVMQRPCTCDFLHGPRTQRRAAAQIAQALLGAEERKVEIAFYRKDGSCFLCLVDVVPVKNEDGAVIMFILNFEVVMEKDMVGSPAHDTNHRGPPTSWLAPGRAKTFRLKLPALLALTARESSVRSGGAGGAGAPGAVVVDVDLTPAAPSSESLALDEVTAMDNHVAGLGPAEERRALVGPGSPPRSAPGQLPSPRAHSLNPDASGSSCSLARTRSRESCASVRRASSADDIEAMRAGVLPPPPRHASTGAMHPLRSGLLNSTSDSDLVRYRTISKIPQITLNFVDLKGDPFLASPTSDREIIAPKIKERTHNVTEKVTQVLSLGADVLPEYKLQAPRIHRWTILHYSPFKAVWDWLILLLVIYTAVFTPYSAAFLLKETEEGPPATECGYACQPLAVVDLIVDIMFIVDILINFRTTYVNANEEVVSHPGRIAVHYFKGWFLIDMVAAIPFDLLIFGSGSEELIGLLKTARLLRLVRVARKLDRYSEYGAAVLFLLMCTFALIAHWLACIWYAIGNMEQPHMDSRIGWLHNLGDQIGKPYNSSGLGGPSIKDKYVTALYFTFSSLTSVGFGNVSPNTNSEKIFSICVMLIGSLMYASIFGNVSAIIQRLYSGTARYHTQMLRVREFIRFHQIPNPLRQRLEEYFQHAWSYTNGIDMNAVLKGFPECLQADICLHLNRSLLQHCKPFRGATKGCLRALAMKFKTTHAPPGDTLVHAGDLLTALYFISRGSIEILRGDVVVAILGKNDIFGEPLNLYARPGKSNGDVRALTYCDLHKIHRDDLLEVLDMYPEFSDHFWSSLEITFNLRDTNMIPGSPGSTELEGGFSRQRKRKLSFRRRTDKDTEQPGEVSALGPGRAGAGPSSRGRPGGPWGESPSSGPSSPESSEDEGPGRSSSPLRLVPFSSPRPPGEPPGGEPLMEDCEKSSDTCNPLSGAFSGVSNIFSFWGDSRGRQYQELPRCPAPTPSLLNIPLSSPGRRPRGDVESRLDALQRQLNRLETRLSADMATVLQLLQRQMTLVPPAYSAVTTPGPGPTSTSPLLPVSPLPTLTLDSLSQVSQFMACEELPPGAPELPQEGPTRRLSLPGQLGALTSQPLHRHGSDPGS
row,SMILES,"hERG current change (%, negative = inhibition) at 10uM"
1,C/C(=N\NC(N)=S)C1C2C3CC4C5CC(C42)C1C53 (centres unmarked),-10%
2,O=C(Nc1nnc(CCN2CCOCC2)s1)c1ccccc1,9.44%
3,Cn1c(CNC(=O)c2ccco2)nnc1SCC(=O)c1ccccc1,10.6%
4,Cn1cnnc1Sc1ccc(C(=O)OCC(=O)Nc2ccccc2)cc1[N+](=O)[O-],2.15%
5,CCOC(=O)c1cc(-c2cccc([N+](=O)[O-])c2)n[nH]1,-9.26%
6,Cc1ccccc1NS(=O)(=O)c1ccc2[nH]cc(C(=O)N(C)Cc3ccco3)c(=O)c2c1,7.11%
7,CN(c1cccc(NC(=O)c2ccc(CN3CCc4ccccc4C3)cc2)c1)S(C)(=O)=O,-7.26%
8,COc1ccc([C@H]2[C@@H]3C=CCC[C@@]3(C)C(=O)N2Cc2ccccc2)cc1Cl,5.39%
9,Cc1ccc(OCC(=O)N2CCN(S(=O)(=O)c3ccc4c(c3)OCCO4)CC2)c(C)c1,-5.79%
10,Fc1ccccc1/C=N/Nc1nc2ccccc2o1,24.7%
11,CCCC1CCc2c(sc(NC(=O)c3cccs3)c2C(N)=O)C1 (centres unmarked),-3.94%
12,CC(=O)c1cccc(NC(=O)c2cccc(NC(=O)c3ccco3)c2)c1,11.6%
13,COC(=O)C1N[C@@H]([C@@H](NC(=O)COc2ccccc2)C(=O)NCc2ccccc2)SC1(C)C (some centres unmarked),-24.6%
14,Cn1c(=O)[nH]c(NC2CCCCC2)c([N+](=O)[O-])c1=O,1.43%
15,O=C(Cc1ccc(Br)cc1)N1CCN(c2ccccc2O)CC1,-4.91%
16,CCOc1ccc(CCNC(=O)CN2CCN(Cc3ccccc3F)C2=O)cc1OCC,-6.85%
17,CC(c1ccccc1)N1C(=O)c2ccc(C(=O)Nc3ccc(Br)cc3C(=O)O)cc2C1=O (centres unmarked),10.5%
18,CCOC(=O)c1c(NC(=O)OC)sc2c1CCC2,-4.95%
19,COc1ccc(NC(=O)CCS(=O)(=O)c2ccc3nc(C)sc3c2)cc1OC,-3.15%
20,O=C(c1ccccc1)c1ccc(OCC(O)CN2CCCC2)cc1 (centres unmarked),-45.3%
21,COc1ccc(NCc2n[nH]nc2-c2ccccc2)cc1Cl,4%
22,CCn1c(SCC(=O)N2CCC(C)CC2)nnc1-c1ccc(S(=O)(=O)N2CCN(C)CC2)cc1,-5.56%
23,CCCC(=O)c1cc2cc(Cl)ccc2oc1=O,8.39%

row,SMILES,"hERG current change (%, negative = inhibition) at 10uM"
1,O=C(CN1CCN(Cc2ccccc2Cl)CC1)N/N=C/c1ccco1,-21.8%
2,CC(C)N(C(=O)COC(=O)[C@@H]1CC(O)CN1S(=O)(=O)c1ccccc1[N+](=O)[O-])C(C)C (some centres unmarked),12.1%
3,CC[C@@H](C)[C@H](NC(=O)C1CCN(C(=O)[C@@H](NS(=O)(=O)c2ccc(C)cc2)C(C)C)CC1)C(=O)O,17.5%
4,COc1ccc(NC(=O)CN(C)C(=O)C(C)Oc2ccc(Br)cc2)cc1 (centres unmarked),-17%
5,CC(C)CCC1(C)NC(=O)N(CC(=O)c2ccc[nH]2)C1=O (centres unmarked),-10.8%
6,O=C(COC(=O)Cn1cnc2ccccc21)Nc1ccc2c(c1)C(=O)c1ccccc1C2=O,2.35%
7,CCN(CC)CCC#CC1(O)c2ccccc2-c2ccccc21,2.38%
8,COc1ccc(OC)c(/C=C2\NC(=O)NC2=O)c1,8.95%
9,CCn1cc(C(=O)NC2CCCCC2C)c(=O)c2ccc(C)nc21 (centres unmarked),3.04%
10,CCCn1c(SCC(=O)NCC(=O)Nc2ccc(F)c(F)c2F)nc2ccccc2c1=O,-9.04%
11,CN1CCN(CCC(=O)N/N=C/c2ccccn2)CC1,21.3%
12,COCCNC(=O)CSc1nc2ccccc2c(=O)n1CCCC(=O)NCc1ccccc1,-33.9%
13,CC12CCCCC1c1ccccc1C(=NCC(=O)O)N2 (centres unmarked),-36.4%
14,COc1ccc(NC(=O)CSCC(=O)Nc2cc(Cl)ccc2N2CCCC2)cc1,-24.1%
15,Cc1cc(C(=O)NCc2ccc3c(c2)OCO3)c(C)o1,0.427%
16,CCOc1ccc(C(=O)NC(=S)Nc2ccc(NC(=O)C(C)C)cc2)cc1[N+](=O)[O-],-19.3%
17,O=C(NC1CCCC1)NS(=O)(=O)c1ccccc1Cl,6.5%
18,Brc1ccccc1,4.67%
19,CCn1c(SCc2nc3ccccc3s2)nnc1-c1cccs1,-60%
20,CC1CCC2C(C1)c1sc(=O)[nH]c1SC2(C)C (centres unmarked),-4.84%
21,Cc1ccc(S(=O)(=O)C(C#N)=C2N(C)c3ccccc3N2C)cc1,50.5%
22,O=C(CCS(=O)(=O)c1cccc2nonc12)N1CCN(c2ccc(F)cc2)CC1,-60.8%
23,O=C(O)CNC(=O)C1CCCN1C(=O)CNC(=O)OCc1ccccc1 (stereo not drawn) (Cbz-Gly-[ξP]-Gly-OH),10.9%

row,SMILES,"hERG current change (%, negative = inhibition) at 10uM"
1,CC(=O)N1CCC(N2CCN(Cc3ccc(C)cc3)C(CCO)C2)CC1 (centres unmarked),-7.68%
2,COC(=O)C1=C(C)N(c2ccc(C(=O)OC)cc2)C(=O)C1,22.3%
3,O=C(CSc1nc2c([nH]c3ccccc32)c(=O)n1-c1ccccc1)N1CCOCC1,5.52%
4,CCc1ccc(C2=NN(S(C)(=O)=O)C(c3cccs3)C2)cc1 (centres unmarked),-13.3%
5,COC(=O)c1cccc(NC(=O)c2ccccc2)c1,-14.8%
6,O=C(CCn1cccn1)N1CCCC(N2CCN(c3cccc(Cl)c3)CC2)C1 (centres unmarked),-54.1%
7,Cc1ccc(N2C(=O)CN(Cc3sccc3C)C2=S)cc1C,-10.6%
8,CCc1ccc(CN2CCC(N3CCC(C(=O)N4CCCC4)CC3)CC2)o1,-70%
9,CC(=O)c1cc2c(s1)-c1cc(F)ccc1OC2,-19.8%
10,O=C(O)CCC(=O)NCc1ccc(F)cc1,-7.12%
11,Cc1ccc(-c2csc3ncnc(NCCC(=O)O)c23)cc1.Cl,2.06%
12,O=C(CCn1ccc2ccccc21)NC1CCCc2ccccc21 (centres unmarked),-14.3%
13,O=C(Nc1ccccc1)OCCN1CCN(Cc2ccccc2)CCC1=O,-9.85%
14,COc1cc(C(=S)N2CCOCC2)ccc1OC(=O)/C=C/c1ccco1,13%
15,S=c1sc2ccccc2n1CCc1ccncc1,-41.9%
16,Oc1ccc(C=NC2CCCCC2)cc1,9.67%
17,Cn1c(SCC(=O)N2CC(=O)Nc3ccccc32)nc2ccccc2c1=O,-5.57%
18,Cc1ccc(-n2c(C)c(C)c3c(N)ncnc32)cc1,3.79%
19,O=C(/C=C/c1ccc(OCCCF)cc1)Nc1ccnc(-c2ccncc2)n1,7.22%
20,Cc1cc(C)c(NC(=O)c2sc3nc(C)[nH]c(=O)c3c2C)c(C)c1,4.73%
21,CCCCn1c(C(C)NC(=O)c2cccs2)nc2ccccc21 (centres unmarked),16.2%
22,CCn1c(C)cs/c1=N\S(=O)(=O)c1ccccc1,2.93%
23,CCCn1c(=S)[nH]c2ccc(C(F)(F)F)cc21,-42.7%

row,SMILES,"hERG current change (%, negative = inhibition) at 10uM"
1,Cc1ccn2c(=O)nc(SCC(=O)N3N=C(c4cccs4)CC3c3ccc(F)cc3)nc2c1 (centres unmarked),-65%
2,COc1cc2c(cc1OC)C(=O)N1[C@H]3c4cc(Cl)ccc4OC[C@@H]3[C@H](c3ccccc3)[C@]1(C)C(=O)N2,6.41%
3,CCOc1cccc(N(C(=O)CCC(=O)Nc2cc(C)on2)C(C(=O)NC(C)(C)C)c2ccc(OC)cc2)c1 (centres unmarked),-13.8%
4,Cc1cccc(OCC(=O)Nc2ccccc2F)c1,18.6%
5,Cn1c(Cl)nc2c1c(=O)n(Cc1cccc(Br)c1)c(=O)n2C,-35.3%
6,CCOC(=O)C1CCCN(S(=O)(=O)c2ccc(OC)cc2)C1 (centres unmarked),4.7%
7,Cc1cc(NC(=O)C(C)Oc2ccc(Cl)cc2Cl)no1 (centres unmarked),-21.6%
8,COc1cc(C(=O)NCCOc2cccc(C)c2)c(Br)c(OC)c1OC,1.24%
9,CCOc1cc(CNCCO)cc(Br)c1OCc1cccs1.Cl,-26.4%
10,CCOC(=O)c1c(NC(=O)c2ccccc2C)sc2c1CC(C)(C)OC2,1.74%
11,CC(C)CCNC(=O)C1CCCCN1S(=O)(=O)c1ccc(F)cc1 (centres unmarked),2.06%
12,O=C(CCN1C(=O)/C(=C/c2cccs2)SC1=S)N1CCCCC1,8.58%
13,CNC(=O)C(=O)Nc1nc(C23CC4CC(CC(C4)C2)C3)cs1,4.55%
14,COC(=O)C1=C(c2ccc3ccccc3c2)C[C@@H]2CC[C@H]1N2C(=O)NC(C)C,-3.76%
15,COc1ccc(OC)c(NC(=O)c2cc(-c3ccc(C)cc3O)n[nH]2)c1,-1.28%
16,O=C(CCS(=O)(=O)c1ccc(Cl)cc1)Nc1nc(-c2ccncc2)cs1,-25.9%
17,CC(C)CN(C(=O)CN1CCN(c2ccccc2O)CC1)c1c(N)n(CC(C)C)c(=O)[nH]c1=O,18.1%
18,CCOc1ccccc1NC(=O)CN(c1ccc(Cl)cc1)S(C)(=O)=O,-20.9%
19,CCOC(=O)Cc1csc(/N=C/c2c(O)n(-c3ccccc3C(F)(F)F)c(=O)c3ccccc23)n1,15.3%
20,O=C(CCC1CCCC1)Nc1ccc([N+](=O)[O-])cn1,-28.8%
